# Test results from a collection of fitness landscapes (doi:10.1016/j.celrep.2020.107928).
# In all, about 81,000 sequences were measured (“one-hybrid fitness for binding NBS DNA”: median about -0.1, highest 2% from about 0.36 on). The list shows a part of the results.
# B1: Caulobacter ParB omega fusion; a variant is named by its letters at X, in order, B8GW30 (parent)
# chain: MESVVVGEPGMSEGRRGLGRGLSALLGEVDAAPAQAPGEQLGGSREAPIEILQRNPDQPRRTFREEDLEDLSNSIREKGVLQPILVRPSPDTAGEYQIVAGERAWRAAQRAGLKTVPIMVRELDDLAVLEIGIIENVQRADLNVLEEALSYKVLMEKFERTQENIAQTIGKSXSHVANXMRLLXLPDEVQSYLVSGELTAXHARAIAAAADPVALAKQIIEGGLSVRETEALARKAPNLSAGKSKGGRPPRVKDTDTQALESDLSSVLGLDVSIDHRGSTGTLTITYATLEQLDDLCNRLTRGI
# Variants of: B1
# Assay: one-hybrid fitness for binding NBS DNA (the Noc-binding site; scaled: cognate 1, non-cognate 0); higher = stronger binding
# Details: with NBS DNA site
# Summary of the method: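 The reporter was HIS3, with the binding site 19 bp from the promoter, in E. coli USO used for bacterial one-hybrid selection of Caulobacter ParB libraries with four specificity codons randomised. Growth was on M9 lacking histidine, with 0.1 mM IPTG and 5 mM 3-AT, for 48 hours at 37°C. Illumina sequencing covered plasmids before and after selection; three replicate libraries were pooled and variants with under 10 reads dropped. A fitness score is the log change in variant-to-wild-type read ratio, rescaled to the cognate and non-cognate references.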
row,Variant,one-hybrid fitness for binding NBS DNA
1,APRF,≤ 0.2
2,LDFG,≤ 0.2
3,YRKA,≤ 0.2
4,RPLP,≤ 0.2
5,TPTV,≤ 0.2
6,VTWC,≤ 0.2
7,WACN,≤ 0.2
8,HVAR,≤ 0.2
9,HPKG,≤ 0.2
10,LYMV,≤ 0.2
11,HVLG,≤ 0.2
12,PMTR,≤ 0.2
13,SRGS,≤ 0.2
14,STET,≤ 0.2
15,ARFE,≤ 0.2
16,YLCR,≤ 0.2
17,MWPR,≤ 0.2
18,PNYS,≤ 0.2
19,DHWC,≤ 0.2
20,SQIG,≤ 0.2
21,NESV,≤ 0.2
22,VWSA,≤ 0.2
23,TIIQ,≤ 0.2
24,NFEC,≤ 0.2
25,GRIY,≤ 0.2
26,AKRP,≤ 0.2

row,Variant,one-hybrid fitness for binding NBS DNA
1,TSDM,≤ 0.2
2,PMLF,≤ 0.2
3,NRPR,≤ 0.2
4,SQSG,≤ 0.2
5,ALNW,≤ 0.2
6,WTGG,≤ 0.2
7,GTNS,≤ 0.2
8,RTQQ,≤ 0.2
9,GFTS,≤ 0.2
10,RPFV,≤ 0.2
11,LDIR,≤ 0.2
12,EAFT,≤ 0.2
13,ANLR,≤ 0.2
14,QAHR,0.541
15,QEKT,≤ 0.2
16,KPSW,≤ 0.2
17,SYTL,≤ 0.2
18,GEDK,≤ 0.2
19,TMMC,≤ 0.2
20,FRAN,≤ 0.2
21,EGRR,≤ 0.2
22,PSNI,≤ 0.2
23,KHEC,≤ 0.2
24,QAWR,0.348
25,CAGR,≤ 0.2
26,MDVC,≤ 0.2

row,Variant,one-hybrid fitness for binding NBS DNA
1,RMTF,≤ 0.2
2,RGDG,≤ 0.2
3,NYYW,≤ 0.2
4,AAYT,≤ 0.2
5,AVMD,≤ 0.2
6,SYIK,≤ 0.2
7,TTHR,≤ 0.2
8,MAPM,≤ 0.2
9,SQRI,≤ 0.2
10,AHWS,≤ 0.2
11,LYLN,≤ 0.2
12,LSKI,≤ 0.2
13,WSDR,≤ 0.2
14,RPPW,≤ 0.2
15,IMPI,≤ 0.2
16,IIEY,≤ 0.2
17,NPCL,≤ 0.2
18,SLGF,≤ 0.2
19,ISGW,≤ 0.2
20,RACP,≤ 0.2
21,YAKC,≤ 0.2
22,QSLV,≤ 0.2
23,SERK,≤ 0.2
24,QHHG,≤ 0.2
25,FMQS,≤ 0.2
26,FCDR,≤ 0.2

row,Variant,one-hybrid fitness for binding NBS DNA
1,FPPV,≤ 0.2
2,TPFS,≤ 0.2
3,NLMS,≤ 0.2
4,NAVI,≤ 0.2
5,VRGI,≤ 0.2
6,PPHA,≤ 0.2
7,VGQG,≤ 0.2
8,QNFY,≤ 0.2
9,PNQC,≤ 0.2
10,THEC,≤ 0.2
11,AWVG,≤ 0.2
12,KPTR,≤ 0.2
13,QKND,≤ 0.2
14,SRPD,≤ 0.2
15,FLDD,≤ 0.2
16,YRSN,≤ 0.2
17,HREC,≤ 0.2
18,RWLH,≤ 0.2
19,MYAR,≤ 0.2
20,GLCS,≤ 0.2
21,RNRN,≤ 0.2
22,LVRW,≤ 0.2
23,KTGY,≤ 0.2
24,ITKT,≤ 0.2
25,QWQC,≤ 0.2
26,TLTM,≤ 0.2

row,Variant,one-hybrid fitness for binding NBS DNA
1,RWHR,≤ 0.2
2,STTE,≤ 0.2
3,AHPT,≤ 0.2
4,PCDL,≤ 0.2
5,ITRW,≤ 0.2
6,LHTY,≤ 0.2
7,AQHC,≤ 0.2
8,NLPS,≤ 0.2
9,LGTS,≤ 0.2
10,SYGI,≤ 0.2
11,VYSV,≤ 0.2
12,MTTL,≤ 0.2
13,HLMR,≤ 0.2
14,ENGS,≤ 0.2
15,QKRH,0.579
16,WEPT,≤ 0.2
17,TGHP,≤ 0.2
18,SVNL,≤ 0.2
19,CETL,≤ 0.2
20,YFQV,≤ 0.2
21,HFPF,≤ 0.2
22,PGPQ,≤ 0.2
23,AMVT,≤ 0.2
24,PHCN,≤ 0.2
25,HASC,≤ 0.2
26,FERS,≤ 0.2

row,Variant,one-hybrid fitness for binding NBS DNA
1,QVKG,≤ 0.2
2,QLSD,≤ 0.2
3,QWMA,≤ 0.2
4,AFMG,≤ 0.2
5,WIDE,≤ 0.2
6,RRHR,0.771
7,CMAT,≤ 0.2
8,ISAW,≤ 0.2
9,LGCI,≤ 0.2
10,LPLM,≤ 0.2
11,DRSV,≤ 0.2
12,DLYA,≤ 0.2
13,YPLH,≤ 0.2
14,PFRV,≤ 0.2
15,PMNT,≤ 0.2
16,NDLV,≤ 0.2
17,LIKH,≤ 0.2
18,SCYH,≤ 0.2
19,QITI,≤ 0.2
20,ETEC,≤ 0.2
21,QWSW,≤ 0.2
22,ALNP,≤ 0.2
23,YQRR,≤ 0.2
